Reference: the antibiotic and cytotoxicity screens of Wong et al. (2023)
Some of the results follow.

Columns and labels:
[1] = test system: HSkMC (human skeletal muscle cells); assay: cytotoxicity call (relative viability < 0.9); settings: 10 µM
[2] = test system: HepG2; assay: cytotoxicity call (relative viability < 0.9); settings: 10 µM
[3] = test system: S. aureus RN4220; assay: growth inhibition call (relative growth <= 0.2); settings: 50 µM

Row | SMILES | cytotoxicity call [1] | cytotoxicity call [2] | growth inhibition call [3]
1 | C[n+]1ccccc1/C=N/O | inactive | inactive | inactive
2 | COCC(=O)N1C[C@H](C)[C@@H](OC)CN(C)C(=O)c2ccc(NC(=O)c3ccc(F)cc3)cc2OC[C@@H]1C | inactive | inactive | inactive
3 | CCS(=O)(=O)N1C[C@]2(C1)CN([C@@H](CO)c1c2c2ccc(cc2n1C)OC)C(=O)Nc1c(noc1C)C | inactive | inactive | inactive
4 | C[C@@H]1CN([C@@H](C)CO)C(=O)c2cc(NC(=O)Cn3cnnn3)ccc2O[C@H]1CN(C)C(=O)NC1CCCCC1 | inactive | inactive | inactive
5 | COc1ccc(CCN2C(=O)[C@@]3(Cc4ccccc42)c2ccccc2C(=O)N(C2CCCCC2)[C@H]3c2ccc(CO)cc2)cc1 | inactive | inactive | inactive
6 | C[C@@H]1CN([C@H](C)CO)C(=O)Cc2cc(NC(=O)Nc3ccc4c(c3)OCO4)ccc2O[C@@H]1CN(C)C(=O)Nc1ccc(C(F)(F)F)cc1 | inactive | active | inactive
7 | C[C@H]1CN([C@@H](C)CO)S(=O)(=O)c2ccc(C#Cc3ccccc3F)cc2O[C@H]1CN(C)CC1CCOCC1 | inactive | inactive | inactive
8 | C[C@@H]1CN([C@H](C)CO)C(=O)c2cc(NC(=O)Nc3cccc4ccccc34)ccc2O[C@@H]1CN(C)Cc1ccc(C(=O)O)cc1 | inactive | inactive | inactive
9 | C[C@H](CO)N1C[C@H](C)[C@H](CN(C)Cc2ccc(Oc3ccccc3)cc2)Oc2ccc(NC(=O)NC3CCCCC3)cc2C1=O | inactive | inactive | inactive
10 | CO[C@H]1CN(C)C(=O)c2cc(NS(=O)(=O)CC(F)(F)F)ccc2OC[C@H](C)N(C(=O)NC(C)C)C[C@H]1C | inactive | inactive | inactive
